In a collection of fitness landscapes (doi:10.1126/science.1257360) one finds enrichment ratio data, which are given here for 195 variants.

Some of the results follow. A value given as a limit tells only on which side of the number the result lay.

B1: PhoQ; a variant is named by its letters at X, in order, P23837 (parent)
chain: MKKLLRLFFPLSLRVRFLLATAAVVLVLSLAYGMVALIGYSVSFDKTTFRLLRGESNLFYTLAKWENNKLHVELPENIDKQSPTMTLIYDENGQLLWAQRDVPWLMKMIQPDWLKSNGFHEIEADVNDTSLLLSGDHSIQQQLQEVREDDDDAEMTHSVAVNVYPATSRMPKLTIVVVDTIPVELKSSYMVWSWFIYVLSANLLLVIPLLWVAAWWSLRPIEALAKEVRELEEHNRELLNPATTRELTSLVRNLNRLLKSERERYDKYRTTLTDLTHSLKTPLXXLQXXLRSLRSEKMSVSDAEPVMLEQISRISQQIGYYLHRASMRGGTLLSRELHPVAPLLDNLTSALNKVYQRKGVNISLDISPEISFVGEQNDFVEVMGNVLDNACKYCLEFVEISARQTDEHLYIVVEDDGPGIPLSKREVIFDRGQRVDTLRPGQGVGLAVAREITEQYEGKIVAGESMLGGARMEVIFGRQHSAPKDE

Variants of B1 are the subject of the experiment. In words: enrichment ratio after two sorts for PhoP signalling (ratio (wild type AVST 3.29)); higher = more functional. The conditions noted are these: with PhoP (E. coli).
Regarding HQQD, the enrichment ratio was not above 0.25.
The result for DPSN reads not above 0.25.
With FPWV, the enrichment ratio is not above 0.25.
For FECW, the enrichment ratio was not above 0.25.
As to SSIV, the enrichment ratio turned out to be 14.2.
As to KGYC, the enrichment ratio is not above 0.25.
For NTCV, the enrichment ratio is not above 0.25.
Regarding WDRI, the enrichment ratio was not above 0.25.
With GGEY the figure was not above 0.25; with VVPS, not above 0.25; with NFIS, not above 0.25.
The result for IDGC reads not above 0.25; that for PTKT, not above 0.25.
As for AEWI, the enrichment ratio was not above 0.25.
Turning to MNIG, the enrichment ratio is not above 0.25.
As for VDMN, the enrichment ratio is not above 0.25.
With RPKK the figure was not above 0.25; with IVCG, not above 0.25; with VSYK, not above 0.25.
With LQIA the figure was not above 0.25; with QDDS, not above 0.25; with ESDV, not above 0.25.
Take EQHS: the enrichment ratio was not above 0.25.
Take TMAH: the enrichment ratio came to 1.31.
As for GKVG, the enrichment ratio is not above 0.25.
Turning to ADRV, the enrichment ratio is not above 0.25.
As for VHWA, the enrichment ratio was not above 0.25.
As to HWRE, the enrichment ratio was not above 0.25.
On to LGTD, for which the enrichment ratio is not above 0.25.
On to VGIE, for which the enrichment ratio was not above 0.25.
In the case of WGIL, the enrichment ratio is not above 0.25.
For PGFQ, the enrichment ratio was not above 0.25.
With QYYR the figure was not above 0.25; with VHFP, not above 0.25.
As for YVVI, the enrichment ratio is not above 0.25.
As for RSPA, the enrichment ratio was not above 0.25.
Regarding MTVC, the enrichment ratio was not above 0.25.
With QDAS, the enrichment ratio was not above 0.25.
As to PGVG, the enrichment ratio is not above 0.25.
For the variant SWFM, the enrichment ratio was not above 0.25.
For KKLF, the enrichment ratio is not above 0.25.
The result for NPNM reads not above 0.25; that for DDEL, not above 0.25.
Regarding KNRR, the enrichment ratio was not above 0.25.
Turning to QRSR, the enrichment ratio is not above 0.25.
Regarding PNTR, the enrichment ratio was not above 0.25.
For the variant FNHQ, the enrichment ratio is not above 0.25.
NKTV: the enrichment ratio was not above 0.25.
Take GYYR: the enrichment ratio is not above 0.25.
VAEN: the enrichment ratio is not above 0.25.
As to GTYQ, the enrichment ratio was 0.253.
In the case of QTNR, the enrichment ratio was not above 0.25.
The result for PWDE reads not above 0.25; that for SQAV, 6.43; that for HPDY, not above 0.25.
The result for YPSV reads not above 0.25.
With KQGL the figure was not above 0.25; with FSWT, not above 0.25.
Regarding NMPH, the enrichment ratio was not above 0.25.
With NIQA the figure was not above 0.25; with DEMR, not above 0.25.
AALE: the enrichment ratio worked out at 1.95.
As for FSYD, the enrichment ratio is not above 0.25.
As for GMTH, the enrichment ratio is not above 0.25.
Consider VDEG, for which the enrichment ratio is not above 0.25.
The result for IGPC reads not above 0.25.
Regarding SING, the enrichment ratio is 13.7.
As for DEEF, the enrichment ratio is not above 0.25.
With TYCE, the enrichment ratio is not above 0.25.
MERP: the enrichment ratio is not above 0.25.
As for FWHH, the enrichment ratio was not above 0.25.
Turning to RNFG, the enrichment ratio is not above 0.25.
On to IAHF, for which the enrichment ratio was not above 0.25.
On to KAQR, for which the enrichment ratio was not above 0.25.
As for FAIE, the enrichment ratio is not above 0.25.
With FVSP the figure was not above 0.25.
As to HDSH, the enrichment ratio is not above 0.25.
With RHVG, the enrichment ratio is not above 0.25.
Take ESMH: the enrichment ratio is not above 0.25.
Take TAEW: the enrichment ratio is not above 0.25.
The result for NAGH reads not above 0.25; that for EASM, not above 0.25; that for KLWR, not above 0.25.
For YSDT, the enrichment ratio was not above 0.25.
IARC: the enrichment ratio was 0.28.
For the variant WDTN, the enrichment ratio was not above 0.25.
With WTGR the figure was not above 0.25; with LNTV, not above 0.25; with WRGD, not above 0.25.
For the variant FMNY, the enrichment ratio is not above 0.25.
Consider VWTL, for which the enrichment ratio is not above 0.25.
With SYTF the figure was not above 0.25; with RRDD, not above 0.25.
On to LHCH, for which the enrichment ratio is not above 0.25.
Take YHRM: the enrichment ratio was not above 0.25.
With LWKY the figure was not above 0.25; with YYSN, not above 0.25; with TRHC, not above 0.25.
Regarding PNYV, the enrichment ratio is not above 0.25.
As for HMQN, the enrichment ratio is not above 0.25.
As to YIFD, the enrichment ratio is not above 0.25.
For the variant KANW, the enrichment ratio was not above 0.25.
For GNWD, the enrichment ratio was not above 0.25.
With FDVE, the enrichment ratio was not above 0.25.
The result for AERS reads not above 0.25; that for NFSF, not above 0.25.
As to HENN, the enrichment ratio is not above 0.25.
Consider GKCM, for which the enrichment ratio was found to be 3.47.
Regarding GFWN, the enrichment ratio is not above 0.25.
Regarding YETE, the enrichment ratio is not above 0.25.
Turning to HCKM, the enrichment ratio was not above 0.25.
On to MALN, for which the enrichment ratio was 8.63.
In the case of NTVK, the enrichment ratio is not above 0.25.
With ICES, the enrichment ratio is not above 0.25.
For YEDY, the enrichment ratio was not above 0.25.
Regarding GSFI, the enrichment ratio is not above 0.25.
For the variant LKIK, the enrichment ratio was not above 0.25.
YSVM: the enrichment ratio came to 4.14.
Take FAVC: the enrichment ratio is not above 0.25.
For the variant MEML, the enrichment ratio is 12.
With DNLY, the enrichment ratio was not above 0.25.
Take EPTQ: the enrichment ratio was not above 0.25.
With NEAT the figure was 2.42; with NWTV, not above 0.25; with RQGY, not above 0.25.
YISN: the enrichment ratio stood at 0.322.
With YEPG the figure was not above 0.25.
With HNNN, the enrichment ratio was not above 0.25.
Take QFHE: the enrichment ratio was not above 0.25.
For WWTH, the enrichment ratio was not above 0.25.
The result for FWTA reads not above 0.25.
For KMFD, the enrichment ratio was not above 0.25.
As to FGRF, the enrichment ratio was not above 0.25.
Turning to AQCM, the enrichment ratio was not above 0.25.
In the case of KYFW, the enrichment ratio was not above 0.25.
Take SETV: the enrichment ratio was determined as 14.9.
The result for LPII reads not above 0.25.
As to PCKN, the enrichment ratio is not above 0.25.
For DCKR, the enrichment ratio was not above 0.25.
The result for TCWI reads 1.27; that for FHCR, not above 0.25.
On to DTVE, for which the enrichment ratio was not above 0.25.
Regarding NTIQ, the enrichment ratio was not above 0.25.
As to GMCD, the enrichment ratio was not above 0.25.
For the variant GQNP, the enrichment ratio is not above 0.25.
As to ANGK, the enrichment ratio is not above 0.25.
The result for ILGK reads not above 0.25; that for MRCC, not above 0.25.
For HDMA, the enrichment ratio is not above 0.25.
The result for GFPQ reads not above 0.25; that for VGPY, not above 0.25.
The result for HIAY reads not above 0.25; that for VTHA, not above 0.25.
Turning to VQRS, the enrichment ratio was not above 0.25.
The result for RWFF reads not above 0.25.
As to SMTG, the enrichment ratio is 5.2.
On to KHWI, for which the enrichment ratio is not above 0.25.
With GCKA the figure was not above 0.25; with HLAM, 4.36; with PNCG, not above 0.25.
As to ADQR, the enrichment ratio was not above 0.25.
With QYAQ the figure was 1.68.
In the case of LCDR, the enrichment ratio was not above 0.25.
As for VKKG, the enrichment ratio was not above 0.25.
Take MLYT: the enrichment ratio is not above 0.25.
VEGP: the enrichment ratio was not above 0.25.
For the variant TCGD, the enrichment ratio worked out at 20.3.
For the variant QNWY, the enrichment ratio is not above 0.25.
In the case of ETRN, the enrichment ratio is not above 0.25.
For FGNW, the enrichment ratio is not above 0.25.
The result for FKYE reads not above 0.25; that for QVVW, not above 0.25; that for DFVS, not above 0.25.
Consider SMIP, for which the enrichment ratio is not above 0.25.
SGSY: the enrichment ratio is 6.9.
Consider RGSY, for which the enrichment ratio was not above 0.25.
Turning to KFVD, the enrichment ratio is not above 0.25.
With AYGE the figure was not above 0.25.
Regarding IMYP, the enrichment ratio was not above 0.25.
With THWA the figure was not above 0.25; with AKWH, not above 0.25.
As for PFST, the enrichment ratio is not above 0.25.
For FFHT, the enrichment ratio was not above 0.25.
For LDLD, the enrichment ratio is not above 0.25.
Regarding DEYP, the enrichment ratio was not above 0.25.
For the variant VTRS, the enrichment ratio is not above 0.25.
For the variant RLWM, the enrichment ratio was not above 0.25.
The result for EQWI reads not above 0.25; that for DSFH, not above 0.25; that for TFRN, not above 0.25.
The result for LIKA reads not above 0.25; that for SLQC, not above 0.25; that for LEVQ, not above 0.25.
The result for VLID reads not above 0.25; that for SRLE, not above 0.25.
